The labels stand for the following.
B1: CPEB3 Ribozyme (parent)
chain: UAACAGGGGGCCACAGCAGAAGCGUUCACGUCGCAGCCCCUGUCAGAUUCUGGUGAAUCUGCGAAUUCUGCUGUAUAUCUC

Read counts are not given, so values of variants with three or more changes are uncertain.

Results on 34 variants are retold here after the RNAGym collection of RNA variant scans (doi:10.1093/nar/gkz1192).

This series covers variants of B1. Description: self-cleavage, relative activity (ratio to wild type); higher = more cleavage; in vitro, sequencing. In outline:
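For each CPEB3 ribozyme variant, relative activity is its cleaved/total read fraction divided by the unmutated ribozyme's. Barcoded error-prone PCR libraries were transcribed by T7 RNA polymerase (5 hours, 37°C) and held in DNase I for 15 min before an EDTA stop, with cleavage occurring throughout. Template-switching reverse transcription and Illumina sequencing were used to read the RNAs. A 5-read minimum applied, and results are the mean of three batches.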
Take UAACAGGGGGCCACAGCAGAGGCGAUCACGCCGCAUCCCCUGUCAGAUUCUGGUGAAUCUGCGAAUUCUGCUGUAUAUCUC [A21G U25A U31C G36U]: the self-cleavage turned out to be 0.05. Regarding UAACAGGGGGCCACAGCAGAGGCGCUCACGUCGCAGCCCCUGUCAGAUUCUGGUGAAUCUGCGAGUUCUGCUGUAUAUCUC [A21G U25C A65G], the self-cleavage was 0.12.

Consider UAACAGGGGGCCACAGCAGAGGCGCUCACGUCGCAGCCCCUGUCAGAUUCUGGUGAAUCUGCGACUUCUGCUGUAUAUCUC [A21G U25C A65C], for which the self-cleavage came to 0.36. Consider UAACAGGGGGCCACAGCAGAGGCGCUCGCGUCGCUGCCCCUGUCAGAUUCUGGUGAAUCUGCGAAUUCUGCCGUAUAUCUC [A21G U25C A28G A35U U72C], for which the self-cleavage amounted to 0.07. Regarding UAACAGGGGGCCACAGCAGAGGCGACCACGUCGCGGCCCCUGUCAGAUUCUGGUGAAUCUGCGAAUUCUGCUGUAUAUCUC [A21G U25A U26C A35G], the self-cleavage is 0.07. Next, UAACAGGGGGCCACAGCAGAGGCGCUCACGUCGCAGCCCCUGUCUGAUUCUGGUGAAUCUGCGAAUUCUGCUGUAUAUCUC [A21G U25C A45U]: 0.35. Turning to UAACAGGGGGCCACAGCAGAGGCGCUCACGUCGCAGCCCCUGUCCGAUUCUGGUGAAUCUGCGGGUUCUGCUGCAUAUCUC [A21G U25C A45C A64G A65G U74C], the self-cleavage was found to be 0.05. UAACAGGGGGCCACAGCAGAGGCGAUCACGUCACAGCCCCUGUCAGAUUCUGGUGAAUCUGCGAAUUCUGCUGUACAUCUC [A21G U25A G33A U76C]: the self-cleavage was determined as 0.06. Under UAACAGGGGGCCACAGCAGAGGCGCUCACGUCGCUGCCCAUGUCAGAUUCUGGUGAAUCUGCGAAUCCUGCUGUAUAUCUC [A21G U25C A35U C40A U67C] stands 0.15; under UAACAGGGGGCCACAGCAGAGGCGAUCACGUCGCAGCCCCUGUCAGACUCUGGUGAAUCUGCGAGUCCUGCUGUAUAUCUC [A21G U25A U48C A65G U67C], 0.08. UAACAGGGGGCCACAGCAGAGGCGAUCACGUCGCAGCCCCUGUCAGAUUCUGGUGAAUCUGCGAAUUCUGCUGUAUACCUC [A21G U25A U78C]: the self-cleavage came to 0.19. As for UAACAGGGGGCCACAGCAGAGGCGCUCACGUCGCGGCCCCUGUCAGAUUCUGGUGAAUCUGCGAAUUCUGAUGUAUAUCUC [A21G U25C A35G C71A], the self-cleavage was found to be 0.06.

For the variant UAACAGGGGGCCACAGCAGAGGCGCUCGCGUCGCAGCCCCAGUCAGAUUCUGGUGAAUCUGCGGAUUCUGCUGUAUAUCUC [A21G U25C A28G U41A A64G], the self-cleavage was 0.23. Next, UAACAGGGGGCCACAGCAGAGGCGAUCACAUCGCAGCCCCUGUCAGAUUCUGGUGAAUCUGCGAAUUCAGCUGCAUAUCUC [A21G U25A G30A U69A U74C]: 0.18; UAACAGGGGGCCACAGCAGAGGCGCUCACGUCGCUGCCCCUGCCAGAUUCUGGUGAAUCUGCGAAUCCUGCUGUAUAUCUC [A21G U25C A35U U43C U67C]: 0.05. Consider UAACAGGGGGCCACAGCAGAGGCGCUCACGUCGCUGCCCCUGUCAGAUUCUGGUGAAUCUGCGAAUUCUGCUGCAUAUCUC [A21G U25C A35U U74C], for which the self-cleavage is 0.3. As to UAACAGGGGGCCACAGCAGAGGCGAUCACGUCGCAGCCCCUGUCAGAUUCGGGAGAAUCUGCGAAUCCUGCUGUAUGUCUC [A21G U25A U51G U54A U67C A77G], the self-cleavage came to 0.08. Consider UAACAGGGGGCCACAGCAGAGGCGAUCACGUCGCAGCCCCUGUCAGAUUCUUGUGAAUCUGCGAAUUCUGCUGUAUAUCUC [A21G U25A G52U], for which the self-cleavage was 0.16. UAACAGGGGGCCACAGCAGAGGCGAUCACGUCGCAGCCCCCGUCAGAUUCUGGUGAAUCUGCGGAUUCUGCUGUAUAUCCC [A21G U25A U41C A64G U80C]: the self-cleavage came to 0.37. In the case of UAACAGGGGGCCACAGCAGAGGCGAUCACGUCGCAGCCCCUGUCAGAUUCUGGUGAAUCUACGAAUUCUGCUGUAUAUCUC [A21G U25A G61A], the self-cleavage stood at 0.17.

For UAACAGGGGGCCACAGCAGAGGCGCUCACGUCGCAGCCCCUGUCAGAUUCUGGUGAAUCUGCGAGUUCUGCUGUACAUCUC [A21G U25C A65G U76C], the self-cleavage came to 0.05.

As to UAACAGGGGGCCACAGCAGAGGCGACCACGUCGCAGCCCCUGUCAGAUUCUGGCGAAUCUGCGAAUUCAGCUGUAUAUCUC [A21G U25A U26C U54C U69A], the self-cleavage is 0.04.

Take UAACAGGGGGCCACAGCAGAGGCGCUCACGUCGCAGCCCCUGUCAGAUUCUGGUGAAUCUGCGAGUUCUGCUGUAUAUCGC [A21G U25C A65G U80G]: the self-cleavage came to 0. Take UAACAGGGGGCCACAGCAGAGGCGCUCACGUCGCAGCCCCUGUCAGAUUCUGGUGAGUCUGCGAAUUCUGCCGUAUAUCUC [A21G U25C A57G U72C]: the self-cleavage amounted to 0.14.

Turning to UAACAGGGGGCCACAGCAGAGGCGAUCACGUCGCAGCCCCUGUCAGAUUCGGGUGUAUCUGCGAAUUCUGCUGUUUAUCUC [A21G U25A U51G A56U A75U], the self-cleavage came to 0.08. For the variant UAACAGGGGGCCACAGCAGAGGCGCUCUCGUCGCGGCCCCUGUCAGAUUCUGGUGAAUCUGCGAAUUCUGCUGUACAUCUC [A21G U25C A28U A35G U76C], the self-cleavage worked out at 0.19.

Regarding UAACAGGGGGCCACAGCAGAGGCGAUCACGUCGCAGCCCCCGUCAGAUUCAGGUGAAUCUGCGAAUUCUGCUGUAUAUUUC [A21G U25A U41C U51A C79U], the self-cleavage stood at 0.02. Consider UAACAGGGGGCCACAGCAGAGGCGCUCUCGUCGCAUCCCCUGUCAGACUCUGGUGAAUCUGCGAAUUCUGCUGUACAUCUC [A21G U25C A28U G36U U48C U76C], for which the self-cleavage stood at 0.04. For UAACAGGGGGCCACAGCAGAGGCGAUCACUUCGCAGCCUCUGUCGGAUUCUGGUGAAUCUGCGGAUUCUGCUGUAUAUCCC [A21G U25A G30U C39U A45G A64G U80C], the self-cleavage was 0.09. With UAACAGGGGGCCACAGCAGAGGCGCUCACGUCGCAGCCCCUGUCAGAUUCUGGUGAAUCUGCGAGUCCUGCUGUAUAUCUC [A21G U25C A65G U67C], the self-cleavage came to 0.14. In the case of UAACAGGGGGCCACAGCAGAGGCGAUCACGACGCAGCCCCUGUCAGAUUCUGGUGAAUCUGCGAAUUCUGCUGUAUAUCCC [A21G U25A U31A U80C], the self-cleavage was found to be 0.48. Consider UAACAGGGGGCCACAGCAGAGGCGAUCACGUCGCAGCCCCUGUCAGAUUCUGGGGAAUCUGCGAAUUCUGCUGUAUAUCUC [A21G U25A U54G], for which the self-cleavage was found to be 0.32.

Regarding UAACAGGGGGCCACAGCAGAGGCGAUCACGUCGCAGCCCCUGUCAGAUUCUGGCGAAUCUGCGAAUUCUGCUGUAUAUCUC [A21G U25A U54C], the self-cleavage came to 0.12. As for UAACAGGGGGCCACAGCAGAGGCGAUCACGUCACAGCCCCUGUCUGAUUCUGGUGAAUCUGCGAAUUCUGCUGUAUAUCUC [A21G U25A G33A A45U], the self-cleavage amounted to 0.05.
